Reference: the supplement of paper PMC8728848
The other results are listed elsewhere or left out.

Key:
Experiment in all cases: glycan array binding signal (z-score within array); higher = stronger binding
Conditions in all cases: glycan notation: IUPAC condensed, linker removed; mutation: R85A
[1] = molecular target: GalNAc(b1-3)Gal(a1-4)Gal(b1-4)GlcNAc
Summary of the method: (§1)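 Arrays were curated from the Consortium for Functional Glycomics database, 3228 in total, and kept only where the protein sequence was available. Binding is expressed as a within-array Z-score. This score was averaged across arrays of the same protein sequence at different concentrations or buffers and across linkers, and negative values can be read as non-binding.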

[2] = molecular target: GalNAc(b1-3)Gal(a1-4)Gal(b1-4)GlcNAc(b1-3)Gal(b1-4)Glc
Summary of the method: as §1

[3] = molecular target: GalNAc(b1-3)Gal(a1-6)Gal(b1-4)Glc
Summary of the method: as §1

[4] = molecular target: GalNAc(b1-3)GalNAc
Summary of the method: as §1

[5] = molecular target: GalNAc(b1-4)GlcNAc
Summary of the method: as §1

[6] = molecular target: GalNAc(b1-4)GlcNAc(b1-2)Man(a1-3)[GalNAc(b1-4)GlcNAc(b1-2)Man(a1-6)]Man(b1-4)GlcNAc(b1-4)GlcNAc
Summary of the method: as §1

[7] = molecular target: Glc(a1-4)Glc
Summary of the method: as §1

[8] = molecular target: Glc(a1-6)Glc(a1-6)Glc
Summary of the method: as §1

[9] = molecular target: Glc(b1-4)Glc
Summary of the method: as §1

[10] = molecular target: Glc(b1-6)Glc
Summary of the method: as §1

[11] = molecular target: GlcA(b1-3)Gal
Summary of the method: as §1

[12] = molecular target: GlcA(b1-3)GlcNAc
Summary of the method: as §1

[13] = molecular target: GlcA(b1-6)Gal
Summary of the method: as §1

[14] = molecular target: GlcNAc(a1-3)Gal(b1-4)GlcNAc
Summary of the method: as §1

[15] = molecular target: GlcNAc(a1-4)Gal(b1-3)GlcNAc
Summary of the method: as §1

[16] = molecular target: GlcNAc(a1-4)Gal(b1-4)GalNAc
Summary of the method: as §1

[17] = molecular target: GlcNAc(a1-4)Gal(b1-4)GlcNAc
Summary of the method: as §1

[18] = molecular target: GlcNAc(a1-4)Gal(b1-4)GlcNAc(b1-3)Gal(b1-4)Glc
Summary of the method: as §1

[19] = molecular target: GlcNAc(a1-4)Gal(b1-4)GlcNAc(b1-3)Gal(b1-4)GlcNAc
Summary of the method: as §1

[20] = molecular target: GlcNAc(a1-4)Gal(b1-4)GlcNAc(b1-3)Gal(b1-4)GlcNAc(b1-3)Gal(b1-4)GlcNAc
Summary of the method: as §1

[21] = molecular target: GlcNAc(a1-4)Gal(b1-4)GlcNAc(b1-3)Gal(b1-4)[Fuc(a1-3)]GlcNAc(b1-3)Gal(b1-4)[Fuc(a1-3)]GlcNAc
Summary of the method: as §1

[22] = molecular target: GlcNAc(a1-6)Gal(b1-4)GlcNAc
Summary of the method: as §1

[23] = molecular target: GlcNAc(b1-2)Gal(b1-3)GalNAc
Summary of the method: as §1

[24] = molecular target: GlcNAc(b1-2)Man(a1-3)[GlcNAc(b1-2)Man(a1-6)]Man(b1-4)GlcNAc(b1-4)GlcNAc
Summary of the method: as §1

[25] = molecular target: GlcNAc(b1-2)Man(a1-3)[GlcNAc(b1-2)Man(a1-6)]Man(b1-4)GlcNAc(b1-4)[Fuc(a1-6)]GlcNAc
Summary of the method: as §1

[26] = molecular target: GlcNAc(b1-2)[GlcNAc(b1-4)]Man(a1-3)[GlcNAc(b1-2)Man(a1-6)]Man(b1-4)GlcNAc(b1-4)GlcNAc
Summary of the method: as §1

[27] = molecular target: GlcNAc(b1-3)Gal
Summary of the method: as §1

[28] = molecular target: GlcNAc(b1-3)Gal(b1-3)GalNAc
Summary of the method: as §1

[29] = molecular target: GlcNAc(b1-3)Gal(b1-4)Glc
Summary of the method: as §1

[30] = molecular target: GlcNAc(b1-3)Gal(b1-4)GlcNAc
Summary of the method: as §1

[31] = molecular target: GlcNAc(b1-3)Gal(b1-4)GlcNAc(b1-3)Gal(b1-4)GlcNAc
Summary of the method: as §1

[32] = molecular target: GlcNAc(b1-3)GalNAc
Summary of the method: as §1

[33] = molecular target: GlcNAc(b1-3)Man
Summary of the method: as §1

[34] = molecular target: GlcNAc(b1-3)[GlcNAc(b1-4)][GlcNAc(b1-6)]GlcNAc
Summary of the method: as §1

[35] = molecular target: GlcNAc(b1-3)[GlcNAc(b1-6)]Gal(b1-4)GlcNAc
Summary of the method: as §1

[36] = molecular target: GlcNAc(b1-3)[GlcNAc(b1-6)]GalNAc
Summary of the method: as §1

[37] = molecular target: GlcNAc(b1-4)Gal(b1-4)GlcNAc
Summary of the method: as §1

[38] = molecular target: GlcNAc(b1-4)GlcNAc
Summary of the method: as §1

[39] = molecular target: GlcNAc(b1-4)GlcNAc(b1-4)GlcNAc
Summary of the method: as §1

[40] = molecular target: GlcNAc(b1-4)GlcNAc(b1-4)GlcNAc(b1-4)GlcNAc(b1-4)GlcNAc
Summary of the method: as §1

[41] = molecular target: GlcNAc(b1-4)GlcNAc(b1-4)GlcNAc(b1-4)GlcNAc(b1-4)GlcNAc(b1-4)GlcNAc
Summary of the method: as §1

[42] = molecular target: GlcNAc(b1-4)[GlcNAc(b1-6)]GalNAc
Summary of the method: as §1

[43] = molecular target: GlcNAc(b1-6)Gal(b1-4)GlcNAc
Summary of the method: as §1

[44] = molecular target: GlcNAc(b1-6)GalNAc
Summary of the method: as §1

[45] = molecular target: GlcNAc3Prop(b1-4)GlcNAc
Summary of the method: as §1

B1: rAAL (Agrocybe aegerita), Q6WY08 (protein)
chain: MQGVNIYNISAGTSVDLAAPVTTGDIVTFFSSALNLNAGAGNPNNTTLNLFAENGAYLLHIAFRLQENVIIFNSRQPDGPWLVEQAVSDVANQFAGIDGKAMVTVFDHGDKYQVVINEKTVIQYTKQISGLTLSLSYNATEETSIFSTVVEAVTYTGLALEHHHHHH
glycan array binding signal (z-score) [1]: -0.14
glycan array binding signal (z-score) [2]: -0.127
glycan array binding signal (z-score) [3]: -0.141
glycan array binding signal (z-score) [4]: -0.126
glycan array binding signal (z-score) [5]: -0.122
glycan array binding signal (z-score) [6]: -0.079
glycan array binding signal (z-score) [7]: -0.129
glycan array binding signal (z-score) [8]: -0.136
glycan array binding signal (z-score) [9]: -0.135
glycan array binding signal (z-score) [10]: -0.133
glycan array binding signal (z-score) [11]: 0.167
glycan array binding signal (z-score) [12]: -0.111
glycan array binding signal (z-score) [13]: -0.133
glycan array binding signal (z-score) [14]: -0.133
glycan array binding signal (z-score) [15]: -0.13
glycan array binding signal (z-score) [16]: -0.136
glycan array binding signal (z-score) [17]: -0.121
glycan array binding signal (z-score) [18]: -0.136
glycan array binding signal (z-score) [19]: -0.132
glycan array binding signal (z-score) [20]: -0.137
glycan array binding signal (z-score) [21]: -0.067
glycan array binding signal (z-score) [22]: -0.133
glycan array binding signal (z-score) [23]: -0.139
glycan array binding signal (z-score) [24]: -0.127
glycan array binding signal (z-score) [25]: -0.112
glycan array binding signal (z-score) [26]: -0.13
glycan array binding signal (z-score) [27]: -0.126
glycan array binding signal (z-score) [28]: -0.113
glycan array binding signal (z-score) [29]: -0.128
glycan array binding signal (z-score) [30]: -0.141
glycan array binding signal (z-score) [31]: -0.136
glycan array binding signal (z-score) [32]: -0.138
glycan array binding signal (z-score) [33]: -0.142
glycan array binding signal (z-score) [34]: -0.14
glycan array binding signal (z-score) [35]: -0.134
glycan array binding signal (z-score) [36]: -0.136
glycan array binding signal (z-score) [37]: -0.131
glycan array binding signal (z-score) [38]: -0.132
glycan array binding signal (z-score) [39]: -0.133
glycan array binding signal (z-score) [40]: -0.144
glycan array binding signal (z-score) [41]: -0.123
glycan array binding signal (z-score) [42]: -0.133
glycan array binding signal (z-score) [43]: -0.134
glycan array binding signal (z-score) [44]: -0.127
glycan array binding signal (z-score) [45]: -0.137
